In paper PMC6919601, “Identification of Plasmodium dipeptidyl aminopeptidase allosteric inhibitors by high throughput screening” (PLoS ONE, 2019):
Screen size: about 110,000 compounds; about 230 (0.21%) showed an effect of 50% or more. Some of the results follow.

The compounds below were run against DPAP1 (Plasmodium falciparum, UniProt Q8IIJ9) (assay: primary screen, percent inhibition; read by cleavage of a fluorogenic dipeptide substrate; higher = more effect of the substance).
Parameters: species or system P. falciparum D10 trophozoite lysates; single well
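Note: 30 min substrate incubation versus DMSO and 10 µM JCP410 controls.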

DPAP1, sequence (Q8IIJ9 whole entry, looked up): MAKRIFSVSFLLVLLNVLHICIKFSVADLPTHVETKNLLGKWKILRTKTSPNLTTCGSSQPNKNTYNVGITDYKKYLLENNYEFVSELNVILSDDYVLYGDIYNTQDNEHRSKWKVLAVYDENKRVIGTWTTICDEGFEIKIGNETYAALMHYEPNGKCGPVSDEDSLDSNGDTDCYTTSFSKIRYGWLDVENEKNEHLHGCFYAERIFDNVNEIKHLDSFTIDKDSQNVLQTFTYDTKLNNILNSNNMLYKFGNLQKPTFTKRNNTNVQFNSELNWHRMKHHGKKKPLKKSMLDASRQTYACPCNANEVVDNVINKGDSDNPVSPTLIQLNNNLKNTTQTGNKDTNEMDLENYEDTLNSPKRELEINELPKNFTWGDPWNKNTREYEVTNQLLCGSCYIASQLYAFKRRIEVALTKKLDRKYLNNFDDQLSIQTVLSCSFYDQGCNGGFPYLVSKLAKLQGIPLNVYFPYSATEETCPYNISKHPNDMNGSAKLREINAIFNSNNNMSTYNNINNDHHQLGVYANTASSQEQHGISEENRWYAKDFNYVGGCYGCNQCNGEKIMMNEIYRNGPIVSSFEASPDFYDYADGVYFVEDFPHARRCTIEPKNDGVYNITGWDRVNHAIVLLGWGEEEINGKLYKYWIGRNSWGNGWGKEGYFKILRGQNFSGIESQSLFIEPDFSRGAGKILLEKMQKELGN

Structure (SMILES)	% Inhibition @ 10 uM [%]
COC(=O)c1cc2ccsc2n1Cc1ccc(F)cc1Cl	-8.02
CCOC(=O)C1=C(C)N=C(SC)N(C)C1c1ccccc1 (stereo not drawn)	-2.56
Fc1ccc(-c2nnc3ccc(N4CCN(C(=S)NC5CCCCC5)CC4)nn23)cc1	-3.08
COC(=O)c1c(NC(=O)c2ccccc2F)sc2c1CCCC2	-6.74
COc1coc(CSC(=S)N(C)C)cc1=O	6.18
Fc1ccc(CN2CCN(c3ccccc3Cl)CC2)c(F)c1	-3.82
N#Cc1ccccc1Sc1ccccc1C(=O)N1CCN(Cc2ccc3c(c2)OCO3)CC1	2.37
CC(C)C(=O)c1c(O)oc2ccccc2c1=O	0.238
CC(=O)C1=C(C)N=c2s/c(=C/c3ccc(N(C)C)cc3)c(=O)n2C1c1ccc(N(C)C)cc1 (stereo not drawn)	-1.65
CCOc1ccccc1NC(=O)Cn1nc(C(F)(F)F)cc1C1CC1	3.48
c1ccc(-n2nnnc2CSc2nnc3sc4ccccc4n23)cc1	2
C=CCc1cc(/C=C2\C(=N)N3C(C)=CSC3=NC2=O)cc(OC)c1OCCOc1ccccc1	-5.15
O=C1c2cccnc2C(=O)N1CCc1ccc(S(=O)(=O)NCc2cccnc2)cc1	3.85
COc1ccc(-c2cc(-c3cccs3)nc3sc(C(=O)NC(C)C)c(N)c23)cc1	3.39
CC(C)CC(NC(=O)c1ccc(NC(=O)NCc2ccco2)cc1)C(=O)NCC#N (stereo not drawn)	-3.97
CC(=O)Nc1nc(C)nc(C)c1C(C)=O	3.76
CC(=O)Nc1ccc2c(c1)C1C=CCC1C(c1ccc(F)cc1)N2 (stereo not drawn)	0.177
CCCCCCCCNC(=O)c1ccc(NC(C)=O)cc1	-9
N#C/C(=C/c1ccc(F)cc1)c1nc(-c2ccc(Br)cc2)cs1	-3.04
CCOc1cc(/C=C2/C(=N)N3OC(C)=CC3=NC2=O)ccc1OC(C)c1ccccc1 (stereo not drawn)	-1.43
Cc1ccc(C)c(-n2nnc(-c3nc(-c4ccncc4)no3)c2N)c1	2.71
Nc1c(C(=O)Nc2nc(-c3ccccc3)cs2)sc2nc3c(cc12)CCCCC3	3.8
COc1ccc(CCNC(=O)c2cc(-c3ccc4c(c3)OCO4)on2)cc1OC	-7.15
COC(=O)c1ccc(NC(=O)c2ccc(Cl)cc2Cl)cc1	4.66
O=c1c2ccccc2nc(CNCC2CCCO2)n1-c1ccc(F)cc1 (stereo not drawn)	0.245

Structure (SMILES)	% Inhibition @ 10 uM [%]
Cc1nc2sccn2c(=O)c1S(=O)(=O)N1CCc2ccccc2C1	0.857
CCCCN(C)C(=O)c1cnn(-c2ccc(C)cc2)c1-n1cccc1	-0.231
CC(=O)NC1=NN(C(C)=O)C2(CCSc3ccc4ccccc4c32)S1 (stereo not drawn)	2.69
CCN1CCN(c2ncnc3onc(-c4ccc(Cl)cc4)c23)CC1	-3.95
CC(C)Cn1c(=O)c2sccc2n2c(CCCC(=O)N3CCC(N4CCCCC4)CC3)nnc12	5.95
CC(=O)Nc1ccc(NC(=O)CN(c2ccc(Cl)cc2C)S(=O)(=O)c2ccccc2)cc1	-1.82
COc1cc2nc(NCCCOC(C)C)n3nc(-c4ccccc4)nc3c2cc1OC	0.981
COc1ccccc1C(=O)NC1CCC(NC(=O)c2ccccc2OC)CC1 (stereo not drawn)	4.05
O=C(Nc1ccc(-c2nc3cc(NC(=O)c4ccccc4)ccc3[nH]2)cc1)c1ccccc1	8.76
CCCCN1C(=O)c2[nH]nc(-c3ccccc3O)c2C1c1ccc(F)cc1 (stereo not drawn)	0.366
COc1ccc(C)cc1N(CC(=O)NCc1ccccn1)S(=O)(=O)c1ccc(C)cc1	-7.58
C=C(C)Cn1c(C(C)NC(=O)COC)nc2ccccc21 (stereo not drawn)	-2.74
COC(=O)c1sc2nc3c(c(-c4ccccc4Cl)c2c1N)CCCC3	2.8
CCC(CC)COC(=O)C1=C(C)NC(=O)NC1c1ccc(Cl)c(Cl)c1 (stereo not drawn)	-3.6
Cc1cccn2cc(CNC(=O)c3ccco3)nc12	-1.72
CCOc1ccc(Cn2nnc3c(O)nc(C4CCN(C(=O)c5cccc(Cl)c5)CC4)nc32)cc1	-1.37
CC(=O)c1c(C)[nH]c(C(=O)N2CCC3(CC2)OCCO3)c1C	1.23
Cc1cc(C)c2c(n1)SCC(=O)N2CCCC(=O)NCCCOC(C)C	-9.91
Nc1c(-c2nc(-c3ccccc3)cs2)c2ccccn2c1C(=O)c1ccccc1	1
COc1ccc(CNc2cc(C)cc(C)c2)cc1Br	1.84
O=C(O)c1cc2ccccc2nc1CSc1ccccc1	-1.17
Cc1cc2nc(O)c(O)nc2cc1S(=O)(=O)N(C)C1CCCCC1	-1.43
CC(=O)NC1C(O)CC2C3CC=C4CC(O)CCC4(C)C3CCC21C (stereo not drawn)	5.2
Cc1ccc(C(NC(N)=O)c2ccccc2C)cc1 (stereo not drawn)	5.04
COc1ccc(OC)c(NC(=O)CSc2nc3ccc(N)cc3s2)c1	-4.6

Structure (SMILES)	% Inhibition @ 10 uM [%]
CC(C(=O)NCc1cccc(Cl)c1)n1c2ccccc2c2cnn(C)c(=O)c21 (stereo not drawn)	-0.281
COc1ccc(C2C(C#N)=C(N)Oc3[nH]nc(-c4ccc5ccccc5c4)c32)cc1OC (stereo not drawn)	1.03
COc1cccc(C(=O)NC2(C(F)(F)F)NC(=O)N(C(C)c3ccccc3)C2=O)c1 (stereo not drawn)	-3.33
O=C(O)CN1C(=O)CSc2ncccc21	0.0882
CCN(CC)S(=O)(=O)c1nnc(NC(=O)c2ccc(OC)c(OC)c2)s1	-3.51
COc1ccc(/C=C2\Sc3ccccc3C2=O)cc1OC	-4.68
O=C(Nc1ccccc1C(F)(F)F)c1cnccn1	-5.48
COc1ccc(Br)cc1C(=O)Nc1ccc(Cl)cc1C(=O)O	2.44
Cc1c(CNCCC2=CCCCC2)c(C(=O)O)c(C)n1Cc1ccc(F)cc1	-3.67
Cc1cccc2c1-c1sc(C(=O)NCCC(C)C)cc1CO2	0.291
O=c1cc(-c2ccccc2)c2ccc3c(c2o1)CN(Cc1ccco1)CO3	2.54
CCn1cnc2sc3c(c2c1=O)CCC(C(C)(C)C)C3 (stereo not drawn)	1.8
N#CC1=C(N)Oc2cc(N)ccc2C1c1ccccc1C(F)(F)F (stereo not drawn)	-5.65
CC1=CC2=NC(Cc3ccccc3)(NC(=O)c3ccccc3)C(=O)N2C=C1 (stereo not drawn)	-0.637
CCc1c(C)sc(NC(=O)c2cccnc2)c1C(N)=O	-1.36
Cc1cccc(C(=O)N2CCN(c3cccc(Cl)c3)CC2)c1	-3.27
COc1ccc(/C=C2\C(=O)NC(=O)N(Cc3ccc(F)cc3)C2=O)c(OC)c1	-4.91
O=c1nc(N2CCCCC2)sc2c1sc1ccccc12	-4.58
CC(=O)NCCCCCc1nc2ccccc2n1C	-3.49
CC[C@@H](C)[C@H](NC(=O)OCc1ccccc1)C(=O)N[C@@H](CCc1ccccc1)C(=O)CO	5.05
Cc1cccc(/C=C(\C#N)c2nc3ccccc3[nH]2)c1O	-0.305
Oc1ccc(CNc2ccccc2Br)c2cccnc12	-9.98
COc1ccc(NS(=O)(=O)c2cccc(C(=O)Nc3cccc(C)c3)c2)cc1	1.64
O=c1cccc2n1C[C@H]1C[C@@H]2CN(Cc2ccc(Br)o2)C1	-7.39
O=C(NCCc1c[nH]c2ccccc12)c1nc(-c2ccc(C(F)(F)F)cc2)no1	4.57

Structure (SMILES)	% Inhibition @ 10 uM [%]
CCC(C)NC(=O)Cn1c2ccccc2c2cnnc(O)c21 (stereo not drawn)	1.38
COc1cc(CNc2ccc3[nH]c(O)nc3c2)ccc1OCC(=O)NC(C)(C)C	-15.2
CCN1CCC(NC(C)COC)CC1 (stereo not drawn)	4.28
O=c1c(=O)c2cc(Cl)ccc2sc2ccccc12	2.39
CC1CCN(C(=O)CN(Cc2ccc(Cl)cc2)S(=O)(=O)c2ccc(Cl)cc2)CC1	-3.65
CC(NC(=O)CCC(=O)O)c1ccccc1 (stereo not drawn)	3.42
CC(C)C(=O)Nc1nc(O)c2c(n1)NC(C)C(C)N2C(=O)c1ccc[n+](Cc2ccccc2)c1 (stereo not drawn)	4.28
O=S(=O)(Cc1ccccc1)Nc1ccccc1F	1.88
CCC(CC)NC(=O)C1C2C=CC(C2)C1C(=O)O (stereo not drawn)	2.84
CC1=C(C(=O)N2CC(C)CC(C)C2)C2(CCC(C)CC2)OC1=O (stereo not drawn)	-3.7
O=C(C1CCCN(S(=O)(=O)c2cccs2)C1)N1CCn2c1cc1ccccc12 (stereo not drawn)	-2.17
Cc1ccc(C)c(OCCCN2CCNCC2)c1	3.52
CC1=CC2=NC(=O)/C(=C\C=C\c3ccccc3)C(=N)N2O1	3.63
CCc1[nH]nc2c1C1(C(=O)Nc3ccc(Cl)cc31)C(C#N)=C(N)O2 (stereo not drawn)	-2.77
Clc1ccc(Cn2ncc3c(N4CCCCC4)ncnc32)cc1	-3.72
COc1ccc(OC)c(-c2nc(O)c3c(n2)Oc2c(cc(Br)cc2OC)C3)c1	-2.84
CCN1C(=O)/C(=C\c2cc(C)n(-c3cc(Cl)ccc3C)c2C)C(C(=O)OC)=C1C	-3.63
CCC(C)c1ccccc1OCC(=O)Nc1sc(C)c(C)c1C(N)=O (stereo not drawn)	5.24
COc1ccc(CCNC(=O)COc2ccc(-c3nc4c(=O)n(C)c(=O)n(C)c4[nH]3)cc2)cc1OC	-3.33
CCN(CC)c1ccc(NC(=O)c2ccoc2C)cc1	4.52
O=C(O)C1C2C=CC(O2)C1C(=O)Nc1ccc(F)c(Cl)c1 (stereo not drawn)	0.431
COc1ccc(NC(=O)c2sc3nc(-c4cccs4)ccc3c2N)cc1OC	-3.39
C#CCOc1ccc(C=C2C(=O)c3ccccc3C2=O)cc1	3.79
Cc1ccc(C)c(S(=O)(=O)Nc2ccc(C(=O)Nc3ccccc3F)cc2)c1	-1.04
